These are yes or no findings as the source states them, for the method shown. Binding seen in cells or lysates may run through a third protein. Some results given as binding are weak or reduced against the parent protein; the word gives no strength.

Amino acid sequences for entries named in this document (tags omitted). A change or cut given only in a name is not applied to a line headed by its entry. Chains listed by the source or under a name are the forms on record and can include a tag or linker.
UniProt Q04206: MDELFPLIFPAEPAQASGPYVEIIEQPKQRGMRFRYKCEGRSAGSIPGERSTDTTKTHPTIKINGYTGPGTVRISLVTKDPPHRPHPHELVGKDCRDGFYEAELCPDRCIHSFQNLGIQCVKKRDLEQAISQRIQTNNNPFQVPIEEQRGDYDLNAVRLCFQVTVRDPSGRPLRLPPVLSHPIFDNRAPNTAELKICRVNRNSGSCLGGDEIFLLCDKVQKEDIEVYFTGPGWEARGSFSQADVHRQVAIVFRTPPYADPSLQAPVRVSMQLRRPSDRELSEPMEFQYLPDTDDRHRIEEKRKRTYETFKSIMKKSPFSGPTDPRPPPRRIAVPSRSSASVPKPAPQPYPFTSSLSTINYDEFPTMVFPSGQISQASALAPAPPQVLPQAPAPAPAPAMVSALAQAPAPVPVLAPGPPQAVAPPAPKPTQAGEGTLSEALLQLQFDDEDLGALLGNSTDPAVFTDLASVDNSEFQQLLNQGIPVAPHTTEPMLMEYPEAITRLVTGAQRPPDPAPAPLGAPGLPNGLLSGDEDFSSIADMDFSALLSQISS
UniProt Q15672: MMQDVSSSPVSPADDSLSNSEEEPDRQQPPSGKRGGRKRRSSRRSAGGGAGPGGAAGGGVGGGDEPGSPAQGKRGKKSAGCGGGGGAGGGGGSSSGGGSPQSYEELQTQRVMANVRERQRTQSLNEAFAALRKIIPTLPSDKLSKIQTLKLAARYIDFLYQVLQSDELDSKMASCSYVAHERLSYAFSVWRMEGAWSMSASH
TWIST1 S144R K145E ΔWR mutant (Q15672, form named): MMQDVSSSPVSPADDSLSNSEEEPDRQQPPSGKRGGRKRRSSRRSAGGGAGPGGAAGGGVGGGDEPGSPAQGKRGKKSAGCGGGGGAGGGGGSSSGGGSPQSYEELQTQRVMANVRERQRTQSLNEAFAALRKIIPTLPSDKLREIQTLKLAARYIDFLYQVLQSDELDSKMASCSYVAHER

In experiment [1] the target is NF-κB subunit RELA (transfected) (UniProt Q04206). Description: co-IP; α-RELA antibodies or IgG control with protein A/G agarose; lysates (100 μg, RIPA buffer) of HEK293 cells 24 h after transfection with RELA and WT or mutant TWIST1; overnight at 4°C, five washes in RIPA; blot for TWIST1.
The target in experiment [2] is TWIST1, endogenous in BT549 cells (human (endogenous in BT549)) (UniProt Q15672). Description: co-IP; fractionation-coupled co-IP, cytoplasmic fraction of BT549 cells (10 mM KCl hypotonic buffer, 0.4% IGEPAL); α-TWIST1 antibodies or IgG control; blot for RELA.
Experiment [3] shares this target. Description: co-IP; fractionation-coupled co-IP, nuclear fraction of BT549 cells (extracted with 0.4 M NaCl, adjusted to 135 mM); α-TWIST1 antibodies or IgG control; blot for RELA.

For the substance “TWIST1 S144R K145E mutant (from UniProt Q15672 1-202)”, the binding result in experiment [1] was “binds”. Still for that read-out and setting: in the case of “TWIST1 S144R K145E ΔWR mutant (from UniProt Q15672 1-182) (domain or fragment)” it was “no binding”.

As for “RELA, endogenous in BT549 cells (from UniProt Q04206 1-551)”, the binding entry is recorded as “no binding (condition: in the cytosolic fraction)” in experiment [2] and “binds” in experiment [3]. In the case of “TWIST1 ΔWR truncation mutant (from UniProt Q15672 1-182) (domain or fragment)”, the binding entry in experiment [1] is given as “no binding”. On the same count and under the same terms, then “TWIST1 wild type (full length) (from UniProt Q15672 1-202)”, with “binds”.

For the origin of these results see article PMC3482588.
